The values below come from PMC12136788.

Some of the results follow.

The chains are these.
T1: UNK ZnF1-3 (human, UniProt Q9C0B0 31-174)
T1 sequence: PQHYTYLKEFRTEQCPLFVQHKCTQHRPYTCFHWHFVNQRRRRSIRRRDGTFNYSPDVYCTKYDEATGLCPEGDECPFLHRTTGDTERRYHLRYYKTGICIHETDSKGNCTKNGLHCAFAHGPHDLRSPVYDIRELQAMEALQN

B1: chr2:64323713:64323714:-_ENSG00000197329_ENST00000358912|hu_hu|motif|central (ssRNA)
RNA: GGGAGUUCUACAGUCCGACGAUCGCUUUGUACUGACUGUGUAUCAGAAUUACUUUGACUUCCAGGAACCGUGUCAGUUACGGCAAAAUCAAUGGGGCUUUCAGUCGACCGGCCAAUCUGAAACAUAUCGGUGUUGCUGUCAUGCAACAGAGGAUUGAGCAUCA
B2: chr16:91657502:91657503:+_ENSMUSG00000022961_ENSMUST00000114036|mus_hu|motif|central (ssRNA)
RNA: GGGAGUUCUACAGUCCGACGAUCUCUAGGUGCUAACCUAUAUGGCCUGGGUGCUAUUCUAUAGGACCUGGGUGCGGUCCUGUAGGGUCUAGGUGACAUCCUAUAGGGAUCAGGAGUUAGUCUGUAGGGAUCAUGGCCUAAUCUCAACAGAGGAUUGAGCAUCA
B3: chr12:67691335:67691336:+_ENSG00000111530_ENST00000540319|hu_hu|FALSE|FALSE (ssRNA)
RNA: GGGAGUUCUACAGUCCGACGAUCCAUAGAAUCAUUUUUGGACAACUCUGACAACAGAUGUUCAAUAAGAUCUACAAAAACUAUAUUUCCACAGCUCAUAACCAGAUGGCCAAGAGCGAUAAUGGUUCUUUUCCUCACUGCAAGCAACAGAGGAUUGAGCAUCA
B4: chr3:52742126:52742127:+_ENSG00000114902_ENST00000602728|hu_hu|motif|central (ssRNA)
RNA: GGGAGUUCUACAGUCCGACGAUCGAAACAUUAAAAUGGUUAACUCAUAAUGAAUUAUAAAACUUUGAUAGUUACAUUGUACGGUCAUUUAUGAGGCAUUUAUUUUUCAUUAUUUACACCUGAAAGAAACUUCAUACUUGUGUGCAACAGAGGAUUGAGCAUCA
B5: 64356465_64356585_95_CDS_ENSG00000118482_ENST00000393387|human|control|control (ssRNA)
RNA: GGGAGUUCUACAGUCCGACGAUCGUCCUCUAAGACAUUUUGACUUGCACUAAAAUCCUCACAGACUUCAUUCUCCAGGUUGGAUCCUAGAAAUAGGGCAUCAUCUAAGUGUUCAGUAGGAAUUAAAUGAUUAAAUGUAUCAACCAACAGAGGAUUGAGCAUCA
B6: chr1:154963231:154963232:+_ENSMUSG00000042751_ENSMUST00000043313|mus_hu|motif|central (ssRNA)
RNA: GGGAGUUCUACAGUCCGACGAUCCUUGGCCUUCUCUACUGGGUGUGGCCCUGAUGAACUCACUGAGUGCUGAGGCUGGCGGCAAUGUCCUAUCAGAGGGGAAGUAAUACCACAGGAGCACAUCAAGACUACAAACAUAAAGAACAACAGAGGAUUGAGCAUCA
B7: chr5:121768680:121768681:+_ENSMUSG00000042744_ENSMUST00000119892|mus_hu|motif|central (ssRNA)
RNA: GGGAGUUCUACAGUCCGACGAUCUUGGGCAGUUUUCUUUUUGUCGCCUGUGGAUAGUCCACUCACAGUCUCUGGGUUGAUAGACUCGGCAGGUGGCCCAAUGCUGACGAUGAGGCCUGACUGUGCCCACUUGGUGGCUUUCCGCAACAGAGGAUUGAGCAUCA
B8: chr4:11166509:11166510:-_ENSMUSG00000040738_ENSMUST00000108319|mus_mus|FALSE|FALSE (ssRNA)
RNA: GGGAGUUCUACAGUCCGACGAUCUUGAGAGUUAUUAUCAGAAGAAGGUACAAGAACAUCACACGCUUGACAAUAGCCAGCUAACCGCUUCUCAUCUAUGGUACAAUGAAGAGAUAAUGAACCUAUCUCUGCAAGUAGUUCUUUCAACAGAGGAUUGAGCAUCA
B9: chr7:17147909:17147910:-_ENSMUSG00000058230_ENSMUST00000075845|mus_hu|FALSE|FALSE (ssRNA)
RNA: GGGAGUUCUACAGUCCGACGAUCCUUACGUUUGGCUGAAUAAAAAACAAUGUACCCAUGAACCAACCGGCUCUUUCUGAUGCUAAAGGAGGAAUGGUAUGAAAGAACAGACAGUUCAAUCCGCUUCUUGUGCAGUCCGAUUGGCAACAGAGGAUUGAGCAUCA
B10: 90017834_90017954_1224_CDS_ENSMUSG00000057706_ENSMUST00000082237|mouse|control|control (ssRNA)
RNA: GGGAGUUCUACAGUCCGACGAUCCAGGCGUGAAGUAGCAGCUGCGCUGCCGCUGGUCCCACCACCGAAGUAAGAGUCUGUGGAUGCGCUGCCAAGCGAGCUGGAGCUGUCGUUGCGAUAGCUGGAGAAGGGCUUGCGGCCAGGCAACAGAGGAUUGAGCAUCA
B11: chr1:23636438:23636439:-_ENSG00000125944_ENST00000302271|hu_hu|FALSE|FALSE (ssRNA)
RNA: GGGAGUUCUACAGUCCGACGAUCUUGUAGGGCAGAUUUCAAAAAGGUGUGAAGUUAUAACAAUUUAAAAACACAGUUAACCUACUUCUAGGAAUGCAAAACAUACAAUCAUAGGUUAUUUUCAAUACAAGAAAACUUAAAUUUCAACAGAGGAUUGAGCAUCA
B12: chr6:112015657:112015658:-_ENSG00000010810_ENST00000368667|hu_hu|motif|central (ssRNA)
RNA: GGGAGUUCUACAGUCCGACGAUCAGCAAUCUUGCAUAUGAGUCCAUUCCCCACUAGAAUGUUUGCUGAUCGCAGAUCUCGGUGGAUAUAAUUCAUGCGCUCGAUGUAAGCCAUUCCUGCAGCCACCUGUGCUGCCAUGUCCACCAACAGAGGAUUGAGCAUCA
B13: 105372790_105372910_1294_CDS_ENSG00000107957_ENST00000369774|human|control|control (ssRNA)
RNA: GGGAGUUCUACAGUCCGACGAUCCUUGUCCCCAGACGCCUUCUUGUUCAGCAGGUUGCUGAUCUCCAUGAUGUUCCCAAUGAUCUCCACUGGGCCGGCCAGGUUCUUCUUCCGGGUUGGCAGGUCAUCCUUGGCCUUCUUCAGCAACAGAGGAUUGAGCAUCA
B14: chr1:163117127:163117128:-_ENSG00000143248_ENST00000313961|hu_mus|hu_hu_hu_mus_False|48_48 (ssRNA)
RNA: GGGAGUUCUACAGUCCGACGAUCUGCUACAAAGGAUGUAACUCAACUCACAGGGCAACUUUUGGAAGCCUGACCAGAUGACUACUUGAUUAACUCCUUAUAAAAUUCAGAGCGCACAAAGCGGGGCAGAGAAUCCUUCUCCAUCAACAGAGGAUUGAGCAUCA
B15: chr2:14037654:14037655:+_ENSMUSG00000026718_ENSMUST00000102960|mus_mus|motif|central (ssRNA)
RNA: GGGAGUUCUACAGUCCGACGAUCAUGACCCUUAUUUAAUACAUUGCUUACUUCACUAGCAAAGUCUCUUGAACAUACUUCGGAGUGAAAAAUUUUGCCACAGUUUGAUACACAUGCUCCCAGAAGAGUUAAGGCUUGCAUAGCCAACAGAGGAUUGAGCAUCA
B16: 95778887_95780000_1775_3pUTR_ENSMUSG00000064210_ENSMUST00000071874|mouse|control|control (ssRNA)
RNA: GGGAGUUCUACAGUCCGACGAUCGAGUAAUAGUUGACAAACUGGAACAAGAACAUCUUCAUGGUCAGGCUGUUCUCAUAAUCCGUCUGGGUCCUUGGGAGCUCGAAGUUGGUGAUCAUGAUGGCCACCUUCUCGUAGAUCGUGCAACAGAGGAUUGAGCAUCA
B17: 111180571_111180691_72_5pUTR_ENSG00000186298_ENST00000335007|human|control|control (ssRNA)
RNA: GGGAGUUCUACAGUCCGACGAUCACACCUCCUUUCCCACGCCACGAGCAGAGGCGGUGGUGGCGGCGGUGGCAGCAGCCGCGGCGGGUCCCCCCCCUGCCACCCCGCUCCCUACUUCCUCCUUCUCUCCCCACUGGAACCACGCAACAGAGGAUUGAGCAUCA
B18: chr12:39756943:39756944:-_ENSG00000139116_ENST00000544797|hu_hu|FALSE|FALSE (ssRNA)
RNA: GGGAGUUCUACAGUCCGACGAUCUGUUUGGCUAUUACCCCCGAGGGAAUCCUGUAGUAGUCUUGUUAGCUUGGAAUCUCUAUAGGGGACAUGUGUGGCCCUCUUGCUCUUGUCUCCCAAGGCACUUAUUACAUUGCCAAGUGCCAACAGAGGAUUGAGCAUCA
B19: 107600220_107600950_2570_CDS_ENSG00000091136_ENST00000393561|human|control|control (ssRNA)
RNA: GGGAGUUCUACAGUCCGACGAUCCUGGCCUCCGUUGGGAUCACACACGGAACUUAACGAACCCUGAGGGUCGCAUUCACAAGCCAGGCCUGUCUGGUGUAACAGGGCAGAAAUGCUAAAGAUGAUGUUUCUGCAAACAUCUGUCAACAGAGGAUUGAGCAUCA
B20: chr7:125341739:125341740:-_ENSMUSG00000030655_ENSMUST00000032891|mus_mus|motif|central (ssRNA)
RNA: GGGAGUUCUACAGUCCGACGAUCUCUGUAUAGAACAUCUGUUACGUAUGCCUCUGUAAUUGGUGGACCCCGAAUUGGGCGGAAGCGUUCCCCAAUGCUCCUCACCACAGUACUGAACACACGGAGAAGUGCUGCCAGCUUUGGCAACAGAGGAUUGAGCAUCA
B21: chr10:36854569:36854570:-_ENSMUSG00000069662_ENSMUST00000092584|mus_mus|motif|central (ssRNA)
RNA: GGGAGUUCUACAGUCCGACGAUCAAACCACAGCCAAAUGUACUUUUGAUGGCAUGCAAGGCCUUCCUAAAAAAUUAAUCGGAGACCGGGAAGUCAGCCUCAGAACAUAAAAAAACACAACAAAUUUGUACAUUUUAUUCACAUCAACAGAGGAUUGAGCAUCA
B22: chr8:121872745:121872746:+_ENSMUSG00000031839_ENSMUST00000034300|mus_mus|motif|central (ssRNA)
RNA: GGGAGUUCUACAGUCCGACGAUCCUUUGUGGGGACAGUGACAUAGAUUGCCUUCUAAGUCAUCAAAACUGGCUUUGAGGCGGAGCCUCCAGACACCAGAAUCCUGAAUGUAAAUCUGUCUUCUUUAAUCAAUAAUAGAACUCACAACAGAGGAUUGAGCAUCA

This assay addresses T1, UNK ZnF1-3. Briefly: nsRBNS (natural sequence RNA bind-n-seq); RBNS binding buffer (assumed for nsRBNS): 25 mM Tris pH 7.5, 150 mM KCl, 3 mM MgCl2, 0.01% Triton X-100, 500 ug/ml BSA, 20 U/ml SUPERase-In, 4 C; UNK is unkempt and MSI1 is Musashi-1; names of the RNAs are library labels; protein concentration not given here; high values mean tight binding.
B1 returned a binding signal of 0.589 enrichment R.

Molecule B2 gave a binding signal of 0.549 enrichment R.

In the case of B3, the binding signal came out at 0.926 enrichment R.

As for B4, the binding signal is 0.856 enrichment R.

Molecule B5 registered a binding signal of 1.62 enrichment R.

The molecule B6 registered a binding signal of 1.36 enrichment R.

Molecule B7 registered a binding signal of 0.469 enrichment R.

As for B8, the binding signal stood at 1.06 enrichment R.

With B9, the binding signal was 1.19 enrichment R.

The molecule B10 had a binding signal of 0.811 enrichment R.

For the molecule B11, the binding signal was determined as 1.19 enrichment R.

As to B12, the binding signal turned out to be 1.08 enrichment R.

B13: the binding signal is 0.501 enrichment R.

With B14, the binding signal was found to be 1.17 enrichment R.

In the case of B15, the binding signal amounted to 1.55 enrichment R.

For the molecule B16, the binding signal amounted to 0.59 enrichment R.

Take B17: the binding signal is 0.865 enrichment R.

On to B18, for which the binding signal worked out at 0.626 enrichment R.

As for B19, the binding signal was determined as 1.05 enrichment R.

B20 registered a binding signal of 0.822 enrichment R.

Turning to B21, the binding signal was 1.7 enrichment R.

As to B22, the binding signal came out at 1.23 enrichment R.
